The campaign covered roughly 340,000 compounds. About 6,900 (2%) were called active. Cut-off read from the data, not from the text of the source: active = inhibition above about 30%; inactive = below that, where a call was filed. The list shows a part of the results, in another mix than the full data. Entries without a call were filed so in the source.
These molecules were tested against D(2) dopamine receptor (Homo sapiens) (UniProt P14416) (assay: HTS Assay for Allosteric Antagonists of the Human D2 Dopamine Receptor: Primary Screen for Antagonists). Conditions: HEK293 TREx D2 cells, calcium flux, dopamine EC80; at 10 µM; stronger effect = higher value.
Chain of UniProt P14416 (P14416 whole entry, looked up): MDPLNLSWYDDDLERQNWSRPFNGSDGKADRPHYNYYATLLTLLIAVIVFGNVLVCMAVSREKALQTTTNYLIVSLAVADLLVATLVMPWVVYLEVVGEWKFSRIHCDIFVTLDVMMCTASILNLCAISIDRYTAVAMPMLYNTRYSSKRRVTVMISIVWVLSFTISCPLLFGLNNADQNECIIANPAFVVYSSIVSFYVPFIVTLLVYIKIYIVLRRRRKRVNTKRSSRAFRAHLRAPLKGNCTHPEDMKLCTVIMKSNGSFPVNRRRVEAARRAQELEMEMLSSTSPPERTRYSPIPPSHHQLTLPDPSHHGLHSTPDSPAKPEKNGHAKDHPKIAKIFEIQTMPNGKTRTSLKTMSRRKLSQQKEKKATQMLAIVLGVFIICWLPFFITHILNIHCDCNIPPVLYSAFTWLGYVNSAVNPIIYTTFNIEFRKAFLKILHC
In short: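 Overnight-induced (tetracycline, 30 C) HEK293 T-REx cells carrying force-coupled D2 receive a no-wash calcium dye, then compound, then EC80 dopamine at 180 s; signals are read kinetically throughout.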
Note: 0% is about no effect.

| SMILES | inhibition |
| --- | --- |
| Cc1ccc(-c2nc3ccc(Cl)cn3c2Nc2ccc3c(c2)OCCO3)s1 | -4.77% |
| COc1ccc(CCNC(=O)CCc2c(C)c3cc4c(C)c(C)oc4cc3oc2=O)cc1 | -19.8% |
| COc1ccc(NC(=O)CC(C)n2nc(C)cc2C)cc1Cl (configuration not stated) | -10.2% |
| CCOc1ccc(CCNC(=O)Cn2ncn3c(cc4ccccc43)c2=O)cc1OCC | -5.41% |
| CCn1c(C(=O)Nc2cc(Cl)ccc2C)cc2sc(Cl)cc21 | -27.7% |
| O=C(CSc1ncc(CO)n1Cc1ccccc1)Nc1ccc(C(F)(F)F)cc1 | 2.62% |
| COc1cccc(C2c3c(-c4ccccc4O)n[nH]c3C(=O)N2CCc2ccc(OC)c(OC)c2)c1 (configuration not stated) | -14.9% |
| CC(C)COc1ccc(C(=O)N2CCN(CCc3ccccn3)CC2)cc1 | 8.11% |
| CCOC(=O)c1c(NC(=O)COc2cccc(C(F)(F)F)c2)sc2c1CCCCC2 | 0.37% |
| Cc1ccc2nc(N3C(=O)C(O)=C(C(=O)c4ccc(C)o4)C3c3ccco3)sc2c1 (configuration not stated) | active: 31.3% |
| CCOc1nc(-c2ccc(C)cc2)ccc1-c1noc(-c2ccccc2F)n1 | -10.3% |
| O=C(Nc1nnc(S(=O)(=O)N2CCc3ccccc32)s1)c1ccccc1 | 18.8% |
| O=C(Nc1c(C(=O)Nc2cccc(F)c2)oc2ccccc12)c1cc2ccccc2o1 | 7.37% |
| COc1cc2[nH]c(=O)n(CCCCCC(=O)NCCc3ccccc3)c(=O)c2cc1OC | 2.24% |
| CCCOc1ccc(CN(C(=O)c2nc(SC(C)C)ncc2Cl)C2CCS(=O)(=O)C2)cc1 (configuration not stated) | 14% |
| CCOc1ccc(/C=C/c2nc(C#N)c(Nc3ccc(OC)cc3)o2)cc1 | -16.8% |
| CSc1ccc(CCNC(=O)CCc2c(C)nc3cc(-c4ccccc4)nn3c2C)cc1 | -1.16% |
| N#Cc1ccccc1Cn1c(=O)n(Cc2ccc(C(=O)NC3CCN(Cc4ccccc4)CC3)cc2)c(=O)c2ccccc21 | 9.96% |
| Cc1c2cnn(-c3ccccc3)c(=O)c2c(C)n1C(C)C(=O)Nc1ccc(Br)cc1F (configuration not stated) | 5.81% |
| Cc1ccc(-n2c(SCC(=O)Nc3cccc(F)c3)nc3c(oc4ccccc43)c2=O)cc1C | -7.75% |
| COc1ccc(N2CCN(C(=O)NCc3noc4ccccc34)CC2)cc1 | 3.22% |
| Cc1cc(C)cc(-n2ccn3c(CC(C)(C)CC(=O)O)nnc3c2=O)c1 | 0.836% |
| COc1cccc(NC(=O)C2CCCN2S(=O)(=O)c2ccc3c(c2)C(C)(C)C(=O)N3C)c1 (configuration not stated) | 18% |
| Cc1ccc2oc3c(c(=O)c2c1)C(c1cccc(O)c1)N(Cc1ccccc1Cl)C3=O (configuration not stated) | 10.2% |
| COc1ccc(C(CNC(=O)C(C)Oc2ccc(Br)cc2)N2CCCC2)cc1 (configuration not stated) | active: 40.8% |

| SMILES | inhibition |
| --- | --- |
| CCN1c2cc(C)ccc2-n2cccc2C12CCN(C(=O)Nc1cc(OC)c(OC)c(OC)c1)CC2 | -1.53% |
| CCOC(=O)c1c(NC(=O)c2ccc(S(=O)(=O)N3CCCC(C)C3)cc2)sc2c1CCN(C(C)C)C2 (configuration not stated) | -17% |
| Cc1ccc(NC(=S)N2CCC(c3ccccc3)C2)c(Cl)c1 (configuration not stated) | active: 30.1% |
| Cc1ccc(S(=O)(=O)c2nc(-c3ccco3)oc2SCc2ccccc2Cl)cc1 | 9.97% |
| CCOC(=O)c1cc(-c2ccccc2)n(-c2cccc(C(=O)N(CC)c3ccccc3)c2)c1C | -19% |
| Cc1cc(C)cc(NC(=O)C(=O)NC(C)c2ccccc2)c1 (configuration not stated) | 1.74% |
| Cc1ccc(C)c2[nH]c(=O)c(CN(Cc3cccs3)C(=S)NCc3ccco3)cc12 | active: 52.6% |
| COc1ccc(N2Cc3cccc(C(=O)Nc4ccc(C)c(C)c4)c3C2=O)cc1 | 1.22% |
| O=C(NCCC1=CCCCC1)c1ccc2c(c1)N(Cc1ccccc1F)C(=O)c1ccccc1S2(=O)=O | 14.6% |
| CCc1cccc(N2C(=O)CS(=O)(=O)C23C(=O)N(Cc2ccc(F)cc2)c2ccc(C)cc23)c1 (configuration not stated) | -1.91% |
| CC1=C(C(=O)Nc2ccc(C)cc2)C(c2ccc(Cl)cc2)n2nnnc2N1 (configuration not stated) | -3.07% |
| Cc1ccc(NC(=O)CN2C(=O)C(C)(C)c3ccccc32)cc1 | -4.47% |
| CCOc1ccc(N2CC(NC(=O)Cc3ccccc3)CC2=O)cc1 (configuration not stated) | -9.82% |
| O=C(Cc1cccs1)NC1CC(=O)N(c2ccc(Cl)cc2)C1 (configuration not stated) | 24.6% |
| Cc1ccc(-c2nn3c(-c4ccccc4)nnc3c3ccccc23)cc1 | 18% |
| Cc1cccc(C(=O)OCc2cc(=O)n3nc(C4CCCCC4)sc3n2)c1 | -9.25% |
| C=CCN(c1ccccc1)S(=O)(=O)c1cccc(C(=O)Nc2nnc(SCC)s2)c1 | active: 42.6% |
| C=Cc1ccc(Cn2c(C(=O)O)c(CNCc3cc(Br)ccc3OC)c3ccc(C)cc32)cc1 | -0.183% |
| CCCN1C(=O)C2(c3ccccc31)c1c(oc3ccccc3c1=O)C(=O)N2CCO (configuration not stated) | 2.4% |
| Cc1cccc(N2CCN(C(=O)CS(=O)(=O)c3cccc4nsnc34)CC2C)c1 (configuration not stated) | -15.7% |
| O=c1oc2ccc(Br)cc2cc1-c1csc(-c2ccc(Cl)cc2)n1 | 8.71% |
| Fc1ccccc1CN1CCN(c2ncccn2)CC1 | active: 84.1% |
| O=C(CC(NCc1cccnc1)C(=O)O)Nc1ccc(F)cc1 (configuration not stated) | 1.84% |
| CCOc1ccccc1NC(=O)c1c(NCc2sccc2C)sc2c1CCCCC2 | 1.48% |
| CCN(CC)CCNC(=O)c1ccc(Cn2c(=O)c3cccn3c3cccnc32)cc1 | 3.8% |

| SMILES | inhibition |
| --- | --- |
| Cc1ccc(-n2ncc(C(=O)NCCc3ccsc3)c2C2CCN(C(=O)OC(C)(C)C)CC2)cc1C | -6.7% |
| O=C(NCC1CCCO1)C(=O)NCC(c1ccco1)N1CCN(c2ccccc2F)CC1 (configuration not stated) | active: 48.2% |
| Cc1cc(NC(=O)CSc2ncc(C(=O)Nc3ccc(F)cc3)c(=O)n2C)no1 | 26.8% |
| Cc1nc2ccccc2c(=O)n1-c1ccc(NC(=O)C(F)(F)F)cc1 | 7.8% |
| NC(=O)CSc1ncc2c(n1)-c1ccccc1N(Cc1cccc(F)c1)S2(=O)=O | 0.327% |
| COc1ccc2nc3oc(C(=O)NCc4ccccc4OC)cc3cc2c1 | -20.6% |
| COc1ccc(-c2noc(-c3nnn(-c4cc(C)ccc4C)c3N)n2)cc1 | 0.858% |
| COc1ccccc1-c1nnc(C2CCN(C(=O)c3ccc(C)cc3)CC2)o1 | -3.24% |
| CC1(C)CC(=O)c2c(oc3c(Cl)cc(NS(=O)(=O)c4ccc(Cl)cc4)cc23)C1 | 4.11% |
| CN(C)S(=O)(=O)c1ccc2c(c1)N(CC(=O)N1CCN(c3ccc(F)cc3)CC1)CCS2 | -3.98% |
| Cc1ccc(-c2nc(CS(=O)CC(=O)N3CCN(c4ccc(Cl)cc4)CC3)c(C)o2)cc1 (configuration not stated) | 10% |
| COc1ccccc1CCNC(=O)C(=O)NCC(c1ccco1)S(=O)(=O)c1ccc(C)cc1 (configuration not stated) | -11.9% |
| COc1ccccc1Nc1cc(C(=O)NCc2cccs2)c2ccccc2n1 | -2.06% |
| Cc1cc(NC(=O)Nc2nc3c(s2)CCCCCC3)ccc1Br | 8.26% |
| CCCCn1c(CNC(=O)c2ccc(OC)cc2)nnc1SCC(=O)Nc1ccc(OC)cc1 | 7.35% |
| Cc1ccc(NCc2nc3ccccc3n2CCOc2ccccc2)cc1 | 7.14% |
| CCC(=O)N1CCc2cc(S(=O)(=O)CCC(=O)NCc3ccccc3OC)ccc21 | 24.6% |
| Cc1ccc(CNC(=O)CCS(=O)(=O)c2cc(Br)cc3c2N(C(=O)C2CC2)CC3)cc1 | 10.2% |
| Cc1ccc(-n2nc(CO)c(C(=O)NCc3cccs3)n2)cc1 | 0.391% |
| Cc1ccc(S(=O)(=O)N(C)C)cc1NC(=O)CCCNC(=O)c1ccc(Cl)cc1 | active: 40.5% |
| CCn1nc(C)c(CCN(C)C(=O)Nc2cc(Cl)ccc2C)c1C | -3.88% |
| Cc1cccc2sc(NC(=O)C3CCCO3)nc12 (configuration not stated) | active: 31.9% |
| COc1ccc(CC(=O)NCCc2csc(-c3ccc(Cl)cc3)n2)cc1 | -10.4% |
| CCNC(=O)Cc1ccc(NC(=O)N2CCCCc3ccccc32)cc1 | 10.1% |
| CCCn1c2ccccc2c2cnn(CC(=O)NCCc3ccc(OC)cc3OC)c(=O)c21 | 2.68% |

| SMILES | inhibition |
| --- | --- |
| CCN(CC)c1nn2c(=O)c(C(=O)NCc3ccc(F)cc3)cnc2s1 | -4.79% |
| Cc1nc(-c2ccccc2)sc1CCNS(=O)(=O)c1ccc(Br)cc1 | 23.1% |
| Cc1ccc(/C=C/C(=O)c2cc(Br)ccc2OC(=O)c2ccco2)cc1 | active: 35.1% |
| Cc1ccc(C(=O)N(Cc2ccc(N(C)C)cc2)Cc2ccco2)cc1 | 0.95% |
| CCOC(=O)c1cc(NC(=O)c2ccc(F)cc2)c(=O)n2c1oc1ccccc12 | -1.16% |
| Cc1ccc(OCCSc2ncccn2)c(C)c1 | active: 36.7% |
| Cn1c(=O)c2cc(C(=O)N3CCN(c4ccc(Cl)cc4)CC3)sc2c2ccccc21 | -15.2% |
| Cc1oc(-c2ccc(C(=O)Nc3cc(F)ccc3F)cc2)nc1COc1ccccc1 | 4.74% |
| Cc1cc(C)cc(NC(=S)NC2CC3CCC(C2)N3Cc2ccco2)c1 (configuration not stated) | active: 45.7% |
| CCC(C)NC(=O)c1cnn(-c2ccc(Cl)cc2)c1C1CCN(C(=O)OC(C)(C)C)CC1 (configuration not stated) | 8.44% |
| O=C(NCCc1ccc(Cl)cc1)c1ccc(CS(=O)Cc2cccc(Cl)c2)o1 (configuration not stated) | -6.87% |
| Nc1nnc(SCC(=O)Nc2ccccc2C(F)(F)F)s1 | 4.63% |
| COC(=O)c1n[nH]n(-c2ccccc2)c1=O | 6.25% |
| Cc1ccn2c(Nc3ccc4c(c3)OCCO4)c(-c3ccc(Cl)s3)nc2c1 | -1.38% |
| CN(C1CCCCC1)S(=O)(=O)c1ccc2c(c1)c(=O)c(C(=O)NCCc1ccccc1)cn2C | 0.0707% |
| Cc1ccc2c(c1)cc(C(=O)Nc1ccc(F)cc1F)n2C | -23.5% |
| Cc1cccc(NC(=O)C2CCCN(S(=O)(=O)c3cnc[nH]3)C2)c1C (configuration not stated) | 25.4% |
| COc1cc(C(=O)Oc2c(Sc3ccc(C)cc3)c(C)nn2-c2ccccc2)cc(OC)c1OC | 23.9% |
| CCOc1ccccc1NC(=O)c1c(NC(=O)c2ccccc2C)sc2c1CCC(C)C2 (configuration not stated) | -0.141% |
| COC(=O)c1c(C)sc(-c2c(-c3ccc4c(c3)OCCO4)[nH]c3c2c(=O)n(C)c(=O)n3C)c1O | 5.06% |
| CCNC(=O)c1cnc2sc(N3CCCCCC3)nn2c1=O | 4.16% |
| COc1cccc(NC(=O)CN(C)S(=O)(=O)c2ccc3nc(C)sc3c2)c1 | 5.88% |

Reference: PubChem BioAssay AID485344 (National Center for Advancing Translational Sciences (NCATS), 2010)
